Screen size: about 310,000 compounds; about 2,200 (0.71%) showed an effect of 50% or more. Effects have a minus sign here. The list shows a part of the results.

The target of the assay is human ether-à-go-go-related gene (hERG) potassium channel (human, UniProt Q12809). The assay can be described thus: primary screen, population patch clamp on CHO cells stably expressing hERG.
Sequence of human ether-à-go-go-related gene (hERG) potassium channel (Q12809 whole entry, looked up): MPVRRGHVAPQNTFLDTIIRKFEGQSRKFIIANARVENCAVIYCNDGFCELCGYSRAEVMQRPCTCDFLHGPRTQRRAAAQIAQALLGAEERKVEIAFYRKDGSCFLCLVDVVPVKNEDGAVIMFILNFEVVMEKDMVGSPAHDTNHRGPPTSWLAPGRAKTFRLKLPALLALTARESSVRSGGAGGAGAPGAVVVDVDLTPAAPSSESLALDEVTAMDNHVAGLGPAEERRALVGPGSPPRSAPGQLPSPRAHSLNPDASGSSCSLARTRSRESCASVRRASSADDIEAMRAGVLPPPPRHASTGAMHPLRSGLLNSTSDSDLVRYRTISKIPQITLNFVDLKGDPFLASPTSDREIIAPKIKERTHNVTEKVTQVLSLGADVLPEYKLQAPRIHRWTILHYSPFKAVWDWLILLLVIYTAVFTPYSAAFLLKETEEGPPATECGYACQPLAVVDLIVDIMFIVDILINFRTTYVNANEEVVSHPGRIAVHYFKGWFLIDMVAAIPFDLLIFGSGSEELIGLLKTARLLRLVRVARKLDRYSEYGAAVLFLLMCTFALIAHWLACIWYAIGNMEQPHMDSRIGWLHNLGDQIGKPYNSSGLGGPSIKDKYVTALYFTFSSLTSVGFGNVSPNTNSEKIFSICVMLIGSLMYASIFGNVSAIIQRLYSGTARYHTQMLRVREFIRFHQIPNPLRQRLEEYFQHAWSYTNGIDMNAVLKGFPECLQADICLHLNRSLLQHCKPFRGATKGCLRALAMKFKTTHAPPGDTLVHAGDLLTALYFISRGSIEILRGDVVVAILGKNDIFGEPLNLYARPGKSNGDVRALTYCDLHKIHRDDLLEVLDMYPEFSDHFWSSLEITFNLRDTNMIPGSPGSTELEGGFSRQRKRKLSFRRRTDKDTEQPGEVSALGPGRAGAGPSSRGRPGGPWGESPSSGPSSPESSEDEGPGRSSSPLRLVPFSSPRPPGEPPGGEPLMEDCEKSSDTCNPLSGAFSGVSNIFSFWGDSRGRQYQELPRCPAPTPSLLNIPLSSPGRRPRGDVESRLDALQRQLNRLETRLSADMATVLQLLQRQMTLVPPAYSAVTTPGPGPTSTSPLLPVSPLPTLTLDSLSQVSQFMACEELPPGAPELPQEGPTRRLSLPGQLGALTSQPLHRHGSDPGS
As to `Cc1cccc2cc(C#N)c(SCc3nnc(-c4ccccc4[N+](=O)[O-])o3)nc12`, the “hERG current change (%, negative = inhibition) at 1uM” value is listed as 10.9%.

Take `COc1ccc(NC2c3ccccc3C(=O)N2c2cccnc2)cc1Cl` (centres unmarked): the “hERG current change (%, negative = inhibition) at 1uM” value is reported as -3%.

With `Cc1nc2ccccc2c(=O)n1NC(=O)c1ccco1`, the “hERG current change (%, negative = inhibition) at 1uM” value is on record as 11.8%.

`Cc1cc(NC(=O)CSc2nnc(-c3cccc(Cl)c3)o2)no1`: the “hERG current change (%, negative = inhibition) at 1uM” value worked out at 13.1%.

Regarding `CC(Cc1ccccc1Sc1ccccc1)N(C)C.O=C(O)/C=C\C(=O)O` (centres unmarked), the “hERG current change (%, negative = inhibition) at 1uM” value was -60.6%.

Take `Cc1csc2c(N3CCN(C(=O)Nc4ccc(OC(F)(F)F)cc4)CC3)ncnc12`: the “hERG current change (%, negative = inhibition) at 1uM” value is listed as 11.1%.

As to `COC(=O)Cc1cc(=O)[nH]c(/N=C(\N)Nc2cccc(C)c2)n1`, the “hERG current change (%, negative = inhibition) at 1uM” value is given as 13.6%.

`O=C1c2ccccc2C(=O)N1CCCC(=O)N1CCCc2ccccc21`: the “hERG current change (%, negative = inhibition) at 1uM” value was -2%.

`C=CCNC(=O)CN(c1ccccc1OCC)S(=O)(=O)c1ccc(C)cc1`: the “hERG current change (%, negative = inhibition) at 1uM” value worked out at 14.3%.

Turning to `Cc1cccc(NC(=O)CSc2nc3ccccc3o2)c1`, the “hERG current change (%, negative = inhibition) at 1uM” value turned out to be 14.7%.

As to `Cc1c(C(=O)c2ccccc2)c2ccccn2c1CCc1ccccn1`, the “hERG current change (%, negative = inhibition) at 1uM” value was 7.11%.

Turning to `NC(=O)c1ccc(SCC(=O)OCC(=O)NCc2ccco2)c([N+](=O)[O-])c1`, the “hERG current change (%, negative = inhibition) at 1uM” value was 10.7%.

In the case of `Cl.O=C(O)C1CCN(Cc2ccccn2)CC1`, the “hERG current change (%, negative = inhibition) at 1uM” value is on record as 13.4%.

On to `CC1CCN(S(=O)(=O)c2ccc(NC(=O)Cc3ccc(S(=O)(=O)N4CCOCC4)s3)cc2)CC1`, for which the “hERG current change (%, negative = inhibition) at 1uM” value is on record as -2.89%.

For `C/C(CC(=O)Nc1cccc(F)c1)=N\NC(=O)C(=O)NC1CCCCC1`, the “hERG current change (%, negative = inhibition) at 1uM” value is 11.3%.

For the molecule `COCCn1c(SCc2ccc(OC)c(F)c2)nnc1-c1ccncc1`, the “hERG current change (%, negative = inhibition) at 1uM” value amounted to 9.13%.

As for `COc1ccc(OC)c(NC(=O)CSc2nnc(CNC(=O)c3cccs3)o2)c1`, the “hERG current change (%, negative = inhibition) at 1uM” value was 5.55%.

`Cc1ccc(C(=O)NCCCN2CCOCC2)o1`: the “hERG current change (%, negative = inhibition) at 1uM” value came out at 22.1%.

As to `COCc1cc(=O)n2[nH]c(C)cc2n1`, the “hERG current change (%, negative = inhibition) at 1uM” value was determined as 10.1%.

Turning to `CC(=O)c1c(OC(=O)c2ccccc2Br)ccc2c(C)cc(=O)oc12`, the “hERG current change (%, negative = inhibition) at 1uM” value was 0.622%.

On to `COc1ccccc1N(CC(=O)NCC1CCCO1)C(=O)CCC(=O)Nc1cc(C)on1` (centres unmarked), for which the “hERG current change (%, negative = inhibition) at 1uM” value was 11.3%.

For `CCCCCOC(=O)C1C2C=CC3(CN(c4ccccc4C)C(=O)C13)O2` (centres unmarked), the “hERG current change (%, negative = inhibition) at 1uM” value is given as 17.3%.

Take `Cc1cc(NCc2ccccc2)n2ncc(-c3ccccc3)c2n1`: the “hERG current change (%, negative = inhibition) at 1uM” value was determined as 4.22%.

Regarding `Cn1c(Cn2c(=O)sc3ccccc32)nnc1SCC(=O)NC1CCCC1`, the “hERG current change (%, negative = inhibition) at 1uM” value worked out at 10.1%.

For the molecule `Cc1cc(NC(=O)COc2coc(CN3CCN(c4ccccc4)CC3)cc2=O)no1`, the “hERG current change (%, negative = inhibition) at 1uM” value is given as -1.27%.

Regarding `COC(=O)C1=C(C)NC(C)=C(C(=O)OC)C1c1ccc2ccccc2n1`, the “hERG current change (%, negative = inhibition) at 1uM” value worked out at 13.6%.

`Nc1nnc(/C=C/c2ccccc2Cl)s1`: the “hERG current change (%, negative = inhibition) at 1uM” value was determined as 13.7%.

Turning to `COc1ccc(CCNC(=O)c2ccc(OC)c(OC)c2)cc1OC`, the “hERG current change (%, negative = inhibition) at 1uM” value was determined as 8.73%.

As to `COc1ccc(Cc2noc(CN3CCN(Cc4csc(C)n4)CC3)n2)cc1OC`, the “hERG current change (%, negative = inhibition) at 1uM” value was 9.32%.

In the case of `CC(O)CCc1ccc(O)cc1` (centres unmarked), the “hERG current change (%, negative = inhibition) at 1uM” value was determined as 8.47%.

`Cc1ccc(/C=N\NC(=O)Cn2nnc3ccccc32)o1`: the “hERG current change (%, negative = inhibition) at 1uM” value came to 1.65%.

As to `O=C(Nc1cc(C(F)(F)F)ccc1N1CCCCC1)c1ccc(Br)o1`, the “hERG current change (%, negative = inhibition) at 1uM” value is given as 13.4%.

On to `COc1ccc(C(=O)NC(C)c2nnc(SCC(=O)NC3=NCCS3)n2C)cc1` (centres unmarked), for which the “hERG current change (%, negative = inhibition) at 1uM” value is reported as 11.7%.

`COc1ccc(N2C(=O)/C(=C\c3ccco3)N=C2SCC(N)=O)cc1Cl`: the “hERG current change (%, negative = inhibition) at 1uM” value came to 13.5%.

With `COC(=O)C(C(=O)OC)C(CC(=O)c1ccc(C)cc1)c1cc(OC)c(OC)c(OC)c1` (centres unmarked), the “hERG current change (%, negative = inhibition) at 1uM” value came out at 4.78%.

Regarding `CCN1C(=O)[C@@H]2[C@H](C1=O)[C@@H]1C(=O)Nc3ccccc3C(=O)N1[C@@H]2c1ccc(Br)cc1`, the “hERG current change (%, negative = inhibition) at 1uM” value is listed as -17.7%.

Consider `[Cl-].c1ccc(C[n+]2cccc(-c3ccccc3)c2)cc1`, for which the “hERG current change (%, negative = inhibition) at 1uM” value was -3.61%.

As for `O=C1N[C@@H](Cc2ccccc2)[C@@H](c2ccco2)O1`, the “hERG current change (%, negative = inhibition) at 1uM” value came out at 13.2%.

On to `CCn1c(NCc2ccco2)nc2ccccc21`, for which the “hERG current change (%, negative = inhibition) at 1uM” value amounted to 10.6%.

In the case of `COc1ccc(C2=NN(C(=O)CCC(=O)O)C(c3ccc(F)cc3)C2)cc1` (centres unmarked), the “hERG current change (%, negative = inhibition) at 1uM” value was determined as 15.9%.

`O=C(CCCN1C(=O)c2cccc3cccc(c23)C1=O)N1CCN(c2ncccn2)CC1`: the “hERG current change (%, negative = inhibition) at 1uM” value is on record as 14.4%.

As to `Cc1ccccc1-c1nnc(-c2ccccc2)o1`, the “hERG current change (%, negative = inhibition) at 1uM” value is listed as -0.417%.

Take `CCOCCCNC(=S)NNC(=O)CCn1nc(C)c(Br)c1C`: the “hERG current change (%, negative = inhibition) at 1uM” value came out at 11.1%.

Consider `COc1ccccc1N1CCN(C(c2cc3cc(C)ccc3[nH]c2=O)c2nnnn2C2CCCC2)CC1` (centres unmarked), for which the “hERG current change (%, negative = inhibition) at 1uM” value was -1.27%.

The record behind these values is publication PMC4336329 (PLoS ONE, 2015).
